# Assay results published in the supplement of paper PMC8728848.
# The list shows a part of the results.
# B1: SSL (Salmo salar) (protein)
# chain: TGAKGAEEGVVPAETRNQCPTGWFQFGSRCFMFVETARSWPLAERHCVSLGANLASVHSSADDQFLQAIAGCKTGAFSTTWIGGFDAVQDRLWFWSDGSEFDYQNWAKGEPNNSGGREPCIVINWGDEYRWNDIKCGNSFPSVCSKRICEIQKN
# Key:
# Experiment in all cases: glycan array binding signal (z-score within array); higher = stronger binding
# Details in all cases: glycan notation: IUPAC condensed, linker removed
# Fuc(a1-2)Gal = target: Fuc(a1-2)Gal
# Summary of the method: (§1)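 Glycan array binding is given as a within-array Z-score, which can be read as non-binding when negative. The arrays, 3228 of them, came from the Consortium for Functional Glycomics database and were retained only where the protein sequence was available. Z-scores were averaged across arrays of the same protein sequence at different concentrations or buffers and across linkers.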
# Fuc(a1-2)Gal(b1-3)GalNAc = target: Fuc(a1-2)Gal(b1-3)GalNAc
# Summary of the method: as §1
# [1] = target: Fuc(a1-2)Gal(b1-3)GalNAc(a1-3)[Fuc(a1-2)]Gal(b1-4)Glc
# Summary of the method: as §1
# [2] = target: Fuc(a1-2)Gal(b1-3)GalNAc(a1-3)[Fuc(a1-2)]Gal(b1-4)GlcNAc
# Summary of the method: as §1
# [3] = target: Fuc(a1-2)Gal(b1-3)GalNAc(b1-3)Gal
# Summary of the method: as §1
# [4] = target: Fuc(a1-2)Gal(b1-3)GalNAc(b1-3)Gal(a1-4)Gal(b1-4)Glc
# Summary of the method: as §1
# [5] = target: Fuc(a1-2)Gal(b1-3)GalNAc(b1-4)[Neu5Ac(a2-3)]Gal(b1-4)Glc
# Summary of the method: as §1
# Fuc(a1-2)Gal(b1-3)GlcNAc = target: Fuc(a1-2)Gal(b1-3)GlcNAc
# Summary of the method: as §1
# [6] = target: Fuc(a1-2)Gal(b1-3)GlcNAc(b1-2)Man(a1-3)[Fuc(a1-2)Gal(b1-3)GlcNAc(b1-2)Man(a1-6)]Man(b1-4)GlcNAc(b1-4)GlcNAc
# Summary of the method: as §1
# [7] = target: Fuc(a1-2)Gal(b1-3)GlcNAc(b1-3)Gal(b1-4)Glc
# Summary of the method: as §1
# [8] = target: Fuc(a1-2)Gal(b1-3)GlcNAc(b1-3)[Fuc(a1-3)[Gal(b1-4)]GlcNAc(b1-6)]Gal(b1-4)Glc
# Summary of the method: as §1
# [9] = target: Fuc(a1-2)Gal(b1-3)[Fuc(a1-4)]GlcNAc
# Summary of the method: as §1
# [10] = target: Fuc(a1-2)Gal(b1-3)[Fuc(a1-4)]GlcNAc(b1-2)Man(a1-3)[Fuc(a1-2)Gal(b1-3)[Fuc(a1-4)]GlcNAc(b1-2)Man(a1-6)]Man(b1-4)GlcNAc(b1-4)GlcNAc
# Summary of the method: as §1
# [11] = target: Fuc(a1-2)Gal(b1-3)[Fuc(a1-4)]GlcNAc(b1-3)[Fuc(a1-3)[Gal(b1-4)]GlcNAc(b1-6)]Gal(b1-4)Glc
# Summary of the method: as §1
# [12] = target: Fuc(a1-2)Gal(b1-3)[Fuc(a1-4)]GlcNAc(b1-3)[Gal(b1-4)GlcNAc(b1-6)]Gal(b1-4)Glc
# Summary of the method: as §1
# Fuc(a1-2)Gal(b1-4)Glc = target: Fuc(a1-2)Gal(b1-4)Glc
# Summary of the method: as §1
# Fuc(a1-2)Gal(b1-4)Glc6S = target: Fuc(a1-2)Gal(b1-4)Glc6S
# Summary of the method: as §1
# Fuc(a1-2)Gal(b1-4)GlcNAc = target: Fuc(a1-2)Gal(b1-4)GlcNAc
# Summary of the method: as §1
# [13] = target: Fuc(a1-2)Gal(b1-4)GlcNAc(b1-2)Man(a1-3)[Fuc(a1-2)Gal(b1-4)GlcNAc(b1-2)Man(a1-6)]Man(b1-4)GlcNAc(b1-4)GlcNAc
# Summary of the method: as §1
# [14] = target: Fuc(a1-2)Gal(b1-4)GlcNAc(b1-3)Gal(b1-4)GlcNAc
# Summary of the method: as §1
# [15] = target: Fuc(a1-2)Gal(b1-4)GlcNAc(b1-3)Gal(b1-4)GlcNAc(b1-3)Gal(b1-4)GlcNAc
# Summary of the method: as §1
# [16] = target: Fuc(a1-2)Gal(b1-4)GlcNAc(b1-3)GalNAc
# Summary of the method: as §1
# [17] = target: Fuc(a1-2)Gal(b1-4)GlcNAc6S
# Summary of the method: as §1
# [18] = target: Fuc(a1-2)Gal(b1-4)[Fuc(a1-3)]GlcNAc
# Summary of the method: as §1
# [19] = target: Fuc(a1-2)Gal(b1-4)[Fuc(a1-3)]GlcNAc(b1-2)Man(a1-3)[Fuc(a1-2)Gal(b1-4)[Fuc(a1-3)]GlcNAc(b1-2)Man(a1-6)]Man(b1-4)GlcNAc(b1-4)GlcNAc
# Summary of the method: as §1
# [20] = target: Fuc(a1-2)Gal(b1-4)[Fuc(a1-3)]GlcNAc(b1-3)Gal(b1-4)[Fuc(a1-3)]GlcNAc
# Summary of the method: as §1
# [21] = target: Fuc(a1-2)Gal(b1-4)[Fuc(a1-3)]GlcNAc(b1-3)Gal(b1-4)[Fuc(a1-3)]GlcNAc(b1-3)Gal(b1-4)[Fuc(a1-3)]GlcNAc
# Summary of the method: as §1
# Fuc(a1-2)Gal6S(b1-4)Glc = target: Fuc(a1-2)Gal6S(b1-4)Glc
# Summary of the method: as §1
# [22] = target: Fuc(a1-2)Gal6S(b1-4)Glc6S
# Summary of the method: as §1
# [23] = target: Fuc(a1-2)Gal6S(b1-4)GlcNAc
# Summary of the method: as §1
# Fuc(a1-2)[Gal(a1-3)]Gal = target: Fuc(a1-2)[Gal(a1-3)]Gal
# Summary of the method: as §1
# [24] = target: Fuc(a1-2)[Gal(a1-3)]Gal(b1-3)GlcNAc
# Summary of the method: as §1
# [25] = target: Fuc(a1-2)[Gal(a1-3)]Gal(b1-3)GlcNAc(b1-2)Man(a1-3)[Fuc(a1-2)[Gal(a1-3)]Gal(b1-3)GlcNAc(b1-2)Man(a1-6)]Man(b1-4)GlcNAc(b1-4)GlcNAc
# Summary of the method: as §1
# [26] = target: Fuc(a1-2)[Gal(a1-3)]Gal(b1-4)Glc
# Summary of the method: as §1
# [27] = target: Fuc(a1-2)[Gal(a1-3)]Gal(b1-4)GlcNAc
# Summary of the method: as §1
# [28] = target: Fuc(a1-2)[Gal(a1-3)]Gal(b1-4)GlcNAc(b1-2)Man(a1-3)[Fuc(a1-2)[Gal(a1-3)]Gal(b1-4)GlcNAc(b1-2)Man(a1-6)]Man(b1-4)GlcNAc(b1-4)GlcNAc
# Summary of the method: as §1
# [29] = target: Fuc(a1-2)[Gal(a1-3)]Gal(b1-4)[Fuc(a1-3)]GlcNAc
# Summary of the method: as §1
# [30] = target: Fuc(a1-2)[Gal(a1-4)]Gal(b1-4)GlcNAc
# Summary of the method: as §1
# [31] = target: Fuc(a1-2)[GalNAc(a1-3)]Gal
# Summary of the method: as §1
# [32] = target: Fuc(a1-2)[GalNAc(a1-3)]Gal(b1-3)GalNAc(a1-3)[Fuc(a1-2)]Gal(b1-4)GlcNAc
# Summary of the method: as §1
# [33] = target: Fuc(a1-2)[GalNAc(a1-3)]Gal(b1-3)GlcNAc
# Summary of the method: as §1
# [34] = target: Fuc(a1-2)[GalNAc(a1-3)]Gal(b1-3)GlcNAc(b1-2)Man(a1-3)[Fuc(a1-2)[GalNAc(a1-3)]Gal(b1-3)GlcNAc(b1-2)Man(a1-6)]Man(b1-4)GlcNAc(b1-4)GlcNAc
# Summary of the method: as §1
# [35] = target: Fuc(a1-2)[GalNAc(a1-3)]Gal(b1-4)Glc
# Summary of the method: as §1
# [36] = target: Fuc(a1-2)[GalNAc(a1-3)]Gal(b1-4)GlcNAc
# Summary of the method: as §1
# [37] = target: Fuc(a1-2)[GalNAc(a1-3)]Gal(b1-4)GlcNAc(b1-2)Man(a1-3)[Fuc(a1-2)[GalNAc(a1-3)]Gal(b1-4)GlcNAc(b1-2)Man(a1-6)]Man(b1-4)GlcNAc(b1-4)GlcNAc
# Summary of the method: as §1
binder,measurement,setting,value
B1,glycan array binding signal (z-score),Fuc(a1-2)Gal,-0.16
same,glycan array binding signal (z-score),Fuc(a1-2)Gal(b1-3)GalNAc,-0.155
same,glycan array binding signal (z-score),[1],-0.152
same,glycan array binding signal (z-score),[2],-0.17
same,glycan array binding signal (z-score),[3],-0.178
same,glycan array binding signal (z-score),[4],-0.176
same,glycan array binding signal (z-score),[5],-0.174
same,glycan array binding signal (z-score),Fuc(a1-2)Gal(b1-3)GlcNAc,-0.164
same,glycan array binding signal (z-score),[6],-0.127
same,glycan array binding signal (z-score),[7],-0.096
same,glycan array binding signal (z-score),[8],-0.183
same,glycan array binding signal (z-score),[9],-0.15
same,glycan array binding signal (z-score),[10],-0.048
same,glycan array binding signal (z-score),[11],-0.178
same,glycan array binding signal (z-score),[12],-0.177
same,glycan array binding signal (z-score),Fuc(a1-2)Gal(b1-4)Glc,-0.152
same,glycan array binding signal (z-score),Fuc(a1-2)Gal(b1-4)Glc6S,-0.137
same,glycan array binding signal (z-score),Fuc(a1-2)Gal(b1-4)GlcNAc,-0.168
same,glycan array binding signal (z-score),[13],-0.162
same,glycan array binding signal (z-score),[14],-0.179
same,glycan array binding signal (z-score),[15],-0.178
same,glycan array binding signal (z-score),[16],-0.142
same,glycan array binding signal (z-score),[17],-0.167
same,glycan array binding signal (z-score),[18],-0.154
same,glycan array binding signal (z-score),[19],-0.156
same,glycan array binding signal (z-score),[20],-0.172
same,glycan array binding signal (z-score),[21],-0.167
same,glycan array binding signal (z-score),Fuc(a1-2)Gal6S(b1-4)Glc,-0.117
same,glycan array binding signal (z-score),[22],-0.149
same,glycan array binding signal (z-score),[23],-0.148
same,glycan array binding signal (z-score),Fuc(a1-2)[Gal(a1-3)]Gal,-0.152
same,glycan array binding signal (z-score),[24],-0.16
same,glycan array binding signal (z-score),[25],-0.182
same,glycan array binding signal (z-score),[26],-0.135
same,glycan array binding signal (z-score),[27],-0.175
same,glycan array binding signal (z-score),[28],-0.182
same,glycan array binding signal (z-score),[29],-0.154
same,glycan array binding signal (z-score),[30],-0.129
same,glycan array binding signal (z-score),[31],-0.165
same,glycan array binding signal (z-score),[32],-0.164
same,glycan array binding signal (z-score),[33],-0.16
same,glycan array binding signal (z-score),[34],-0.184
same,glycan array binding signal (z-score),[35],-0.144
same,glycan array binding signal (z-score),[36],-0.171
same,glycan array binding signal (z-score),[37],-0.178
